Data from a collection of fitness landscapes (doi:10.1038/s41467-024-54723-y).
The full ranking holds about 18,000 sequences; the median of “TetR repression strength (sort-seq, GFP reporter)” is about 0.23, and the highest 2% start at about 0.68. This is one part of the list.

Target: TetR (class B, Tn10) (UniProt P04483)
Assay: TetR repression strength (sort-seq, GFP reporter) (relative to tetO2 = 1); higher = stronger repression
Conditions: E. coli
Outline: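 In LB with 50 µg/mL chloramphenicol, E. coli SIG10-MAX holding a low-copy library with eight randomized operator positions between a constitutive promoter and sfGFP, plus constitutive TetR, grew for 5 h at 37 °C. FACS then sorted 10^6 cells into 13 fluorescence bins for Illumina sequencing of each bin. Repression strength equals the top bin index plus one less the read-weighted mean bin, normalized to the unaltered operator. Values from three independent transformations were averaged when reads were ≥30 in every replicate and the CV was ≤0.5.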

UniProt P04483, sequence (P04483 whole entry): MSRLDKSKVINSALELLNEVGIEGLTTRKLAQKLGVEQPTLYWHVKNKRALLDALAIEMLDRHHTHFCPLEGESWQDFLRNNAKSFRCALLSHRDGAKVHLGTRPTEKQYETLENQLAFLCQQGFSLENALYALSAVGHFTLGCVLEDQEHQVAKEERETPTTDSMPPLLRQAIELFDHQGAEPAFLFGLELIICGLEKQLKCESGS

Sequence | TetR repression strength
TCCCTCAGAGTTGGGGAGA | 0.0346
TCCCGTTGAGTGCGTGAGA | 0.144
TCCCGTGTAGTGGTCGAGA | 0.149
TCCCGGTAAGTGTTTGAGA | 0.246
TCCCAACTAGTCCAGGAGA | 0.362
TCCCCGGCAGTCTCGGAGA | 0.174
TCCCGTACAGTCAGTGAGA | 0.119
TCCCGGGCAGTCGGAGAGA | 0.331
TCCCTCACAGTTTCGGAGA | 0.117
TCCCGCTGAGTAGTGGAGA | 0.355
TCCCCGGAAGTCGAGGAGA | 0.00628
TCCCTTCGAGTACGTGAGA | 0.349
TCCCGAGGAGTGCAGGAGA | 0.322
TCCCCCACAGTGTTGGAGA | 0.0473
TCCCCGTAAGTACTAGAGA | 0.29
TCCCGTTTAGTTACGGAGA | 0.193
TCCCCGTGAGTGTTAGAGA | 0.318
TCCCTTGGAGTGCACGAGA | 0.097
TCCCAGACAGTGTAGGAGA | 0.444
TCCCGGCGAGTACAGGAGA | 0.248
TCCCGTCTAGTGGCGGAGA | 0.29
TCCCATAAAGTGCAGGAGA | 0.245
TCCCTCCAAGTCGTGGAGA | 0.316
TCCCTAACAGTTCTGGAGA | 0.516
TCCCTTTAAGTCGGTGAGA | 0.257
TCCCGTGAAGTGGCTGAGA | 0.131

Sequence | TetR repression strength
TCCCAGGGAGTGCCAGAGA | 0.112
TCCCATGGAGTGGCCGAGA | 0.0889
TCCCTCCTAGTGTATGAGA | 0.544
TCCCCCCGAGTGTGTGAGA | 0.238
TCCCGGGGAGTGGTGGAGA | 0.427
TCCCTCACAGTACTTGAGA | 0.217
TCCCCTCCAGTAATGGAGA | 0.183
TCCCCCCTAGTGTCCGAGA | 0.358
TCCCCGCGAGTTCGGGAGA | 0.492
TCCCAAGTAGTGGGTGAGA | 0.136
TCCCCCATAGTCTATGAGA | 0.298
TCCCCCGAAGTTAGCGAGA | 0.274
TCCCTGCAAGTGAGGGAGA | 0.237
TCCCTCAAAGTTGTTGAGA | 0.251
TCCCTCCAAGTGGAGGAGA | 0.542
TCCCGGGGAGTGCATGAGA | 0.284
TCCCAAGCAGTCCGAGAGA | 0.254
TCCCCGGTAGTCTTCGAGA | 0.494
TCCCAGGGAGTTGAAGAGA | 0.409
TCCCAGGTAGTCCGGGAGA | 0.22
TCCCTATGAGTTCGGGAGA | 0.214
TCCCGAGAAGTAGCGGAGA | 0.241
TCCCATCTAGTGTAAGAGA | 0.311
TCCCCCTAAGTTACCGAGA | 0.537
TCCCGCTTAGTCCGGGAGA | 0.272
TCCCCGTGAGTCACTGAGA | 0.0402

Sequence | TetR repression strength
TCCCGTTGAGTAAAGGAGA | 0.518
TCCCGGGAAGTAGCGGAGA | 0.127
TCCCAAGAAGTTGCGGAGA | 0.21
TCCCGAGAAGTCACAGAGA | 0.215
TCCCGTCGAGTTGGGGAGA | 0.0764
TCCCGTGTAGTTGAGGAGA | 0.368
TCCCAGACAGTTTGGGAGA | 0.203
TCCCTGGGAGTGTACGAGA | 0.204
TCCCTGCAAGTGTCGGAGA | 0.133
TCCCGACCAGTGGATGAGA | 0.34
TCCCCGTGAGTTTGAGAGA | 0.0703
TCCCTTCAAGTCTGGGAGA | 0.172
TCCCGCCAAGTGCCAGAGA | 0.392
TCCCAACTAGTGGTCGAGA | 0.175
TCCCACGCAGTATTGGAGA | 0.34
TCCCTATCAGTGATAGAGA | 1
TCCCTTGGAGTTTATGAGA | 0.113
TCCCTCGTAGTCTAAGAGA | 0.142
TCCCCTGTAGTGTCGGAGA | 0.135
TCCCCTCAAGTGTAGGAGA | 0.128
TCCCTCCAAGTCGACGAGA | 0.337
TCCCTGTGAGTTTCCGAGA | 0.314
TCCCCATGAGTGAAGGAGA | 0.0296
TCCCTGTTAGTAGGAGAGA | 0.312
TCCCGGGGAGTTGGAGAGA | 0.37
TCCCACATAGTGTTCGAGA | 0.358

Sequence | TetR repression strength
TCCCGGTCAGTTGGCGAGA | 0.185
TCCCCCGGAGTAGAGGAGA | 0.187
TCCCTAGGAGTTGTTGAGA | 0.189
TCCCGGCAAGTCCTCGAGA | 0.176
TCCCACTCAGTGGGAGAGA | 0.423
TCCCGAGTAGTGAGCGAGA | 0.141
TCCCGCGCAGTGGAGGAGA | 0.36
TCCCGCGGAGTGGAGGAGA | 0.231
TCCCTTAAAGTGGTGGAGA | 0.179
TCCCGAAAAGTATTAGAGA | 0.368
TCCCATTCAGTACTCGAGA | 0.232
TCCCTTGCAGTTTTCGAGA | 0.207
TCCCTTTCAGTGGCTGAGA | 0.496
TCCCCGCAAGTAGAAGAGA | 0.207
TCCCGAACAGTGGGAGAGA | 0.231
TCCCCGCCAGTGGCTGAGA | 0.359
TCCCGGTAAGTGTGGGAGA | 0.302
TCCCGAGTAGTGGAGGAGA | 0.155
TCCCGGCTAGTTAGGGAGA | 0.177
TCCCTGTTAGTGTGTGAGA | 0.138
TCCCTGGCAGTTACGGAGA | 0.0762
TCCCTTGCAGTAGCGGAGA | 0.178
TCCCACCAAGTCTAGGAGA | 0.232
TCCCATGGAGTGGGCGAGA | 0.141
TCCCGGGCAGTACTTGAGA | 0.29
TCCCATCCAGTGGTCGAGA | 0.205

Sequence | TetR repression strength
TCCCGTCCAGTGGTTGAGA | 0.131
TCCCTTAAAGTGTTGGAGA | 0.334
TCCCCCATAGTGCCAGAGA | 0.453
TCCCACTAAGTGGCTGAGA | 0.0969
TCCCGGCTAGTATTTGAGA | 0.12
TCCCAATAAGTCCGGGAGA | 0.0056
TCCCTGGAAGTAGATGAGA | 0.342
TCCCGGTGAGTGCGTGAGA | 0.282
TCCCCGCAAGTGGACGAGA | 0.218
TCCCGGCTAGTGCGTGAGA | 0.246
TCCCTTTAAGTAGAAGAGA | 0.207
TCCCCTGTAGTGGGAGAGA | 0.33
TCCCTGACAGTTCCCGAGA | 0.2
TCCCAAATAGTAACTGAGA | 0.0655
TCCCTCTAAGTTATAGAGA | 0.703
TCCCATTGAGTGAGTGAGA | 0.324
TCCCGGTTAGTTGAGGAGA | 0.12
TCCCCGTTAGTCGAAGAGA | 0.0179
TCCCACCAAGTGGGGGAGA | 0.1
TCCCAGCGAGTGCATGAGA | 0.104
TCCCTTCTAGTACCTGAGA | 0.494
TCCCGGCCAGTGGGAGAGA | 0.268
TCCCTCAGAGTCGCGGAGA | 0.279
TCCCGACCAGTGAAGGAGA | 0.276
TCCCGCATAGTAACAGAGA | 0.432
TCCCGCGAAGTGACTGAGA | 0.319

Sequence | TetR repression strength
TCCCCGTAAGTGTCTGAGA | 0.252
TCCCTCACAGTACAAGAGA | 0.232
TCCCCTTCAGTGGTTGAGA | 0.217
TCCCCGGTAGTGTTAGAGA | 0.154
TCCCGGGTAGTAGGGGAGA | 0.183
TCCCCGCGAGTGTGGGAGA | 0.38
TCCCCCTGAGTGTAGGAGA | 0.155
TCCCGGCGAGTAGAGGAGA | 0.248
TCCCATCAAGTTGCGGAGA | 0.172
TCCCTACGAGTGGACGAGA | 0.0565
TCCCTTGGAGTTAGGGAGA | 0.2
TCCCGGATAGTCGCCGAGA | 0.296
TCCCGAATAGTGGCTGAGA | 0.267
TCCCCATTAGTTTGAGAGA | 0.512
TCCCTATGAGTTCACGAGA | 0.459
TCCCGCGTAGTCTAGGAGA | 0.462
TCCCTCCTAGTCGCCGAGA | 0.511
TCCCAGAAAGTTCAAGAGA | 0.387
TCCCCCCAAGTGGCGGAGA | 0.0427
TCCCGTTCAGTGCATGAGA | 0.398
TCCCGTGCAGTTCTTGAGA | 0.0764
TCCCATTAAGTTTCTGAGA | 0.229
TCCCGGGCAGTCTGCGAGA | 0.355
TCCCGCCTAGTCTGCGAGA | 0.194
TCCCACAGAGTTCACGAGA | 0.328
TCCCTGTGAGTGTCTGAGA | 0.251

Sequence | TetR repression strength
TCCCGGTCAGTCAGGGAGA | 0.226
TCCCAGGCAGTGATGGAGA | 0.181
TCCCGTGGAGTAAAGGAGA | 0.242
TCCCGCGTAGTGAACGAGA | 0.0889
TCCCCACTAGTTAAGGAGA | 0.225
TCCCTGACAGTCGTGGAGA | 0.0295
TCCCGAAGAGTTAGTGAGA | 0.21
TCCCGAACAGTGGTTGAGA | 0.184
TCCCGTCTAGTTAAGGAGA | 0.811
TCCCATTCAGTTGGAGAGA | 0.262
TCCCAATGAGTGTCAGAGA | 0.213
TCCCTGGAAGTCTTGGAGA | 0.197
TCCCTTACAGTGGGTGAGA | 0.261
TCCCGAACAGTAATGGAGA | 0.158
TCCCATTAAGTGATTGAGA | 0.379
TCCCTGCAAGTTAGCGAGA | 0.178
TCCCGAAGAGTGCGCGAGA | 0.0512
TCCCGTGTAGTAGTCGAGA | 0.255
TCCCGACGAGTAGTGGAGA | 0.171
TCCCGAAGAGTCAAAGAGA | 0.207
TCCCGTTTAGTACGGGAGA | 0.175
TCCCTTCAAGTACGTGAGA | 0.312
TCCCTCGGAGTCGCGGAGA | 0.446
TCCCAGGTAGTCTTTGAGA | 0.288
TCCCCAGTAGTCACGGAGA | 0.215
TCCCCAGGAGTTACGGAGA | 0.193

Sequence | TetR repression strength
TCCCGGCGAGTAAGTGAGA | 0.287
TCCCCTTTAGTAGGTGAGA | 0.14
TCCCGTTCAGTCCGTGAGA | 0.376
TCCCGGTGAGTAGTGGAGA | 0.27
TCCCGGAGAGTGTGAGAGA | 0.257
TCCCCATCAGTGAGTGAGA | 0.409
TCCCCAGGAGTCCGGGAGA | 0.332
TCCCGCCAAGTTGTCGAGA | 0.274
TCCCTCACAGTCAACGAGA | 0.354
TCCCCGTAAGTTTATGAGA | 0.301
TCCCAGATAGTTAGCGAGA | 0.586
TCCCTTTAAGTTTACGAGA | 0.463
TCCCGCCTAGTGGTGGAGA | 0.124
TCCCGAGTAGTAGATGAGA | 0.147
TCCCGTGCAGTGGGGGAGA | 0.194
TCCCTTGCAGTCCAGGAGA | 0.246
TCCCCACTAGTCTGCGAGA | 0.602
TCCCCAGGAGTATTCGAGA | 0.238
TCCCTATCAGTGATGGAGA | 0.999
TCCCGGCGAGTTATGGAGA | 0.347
TCCCTATCAGTTTATGAGA | 0.407
TCCCATTGAGTCAACGAGA | 0.386
